Results as given in the supplement of paper PMC4166925.
± gives the standard deviation of the averaged measurements. Whole data set: some 33,000 sequences, median “E-score (dimensionless, -0.5 to 0.5)” near -0.046, cut for the highest 2% near 0.36. The list shows a part of the results.

test system: T1, SpTbr T-box DNA-binding domain (GST fusion); assay: PBM E-score of 8-mer (E-score (dimensionless, -0.5 to 0.5)); Tbr is Tbrain of the sea star Patiria miniata (Pm) or the sea urchin Strongylocentrotus purpuratus (Sp); higher = stronger binding preference; most listed sequences are background and not binding sites; conditions: the construct has about 5 more residues each side
T1 sequence: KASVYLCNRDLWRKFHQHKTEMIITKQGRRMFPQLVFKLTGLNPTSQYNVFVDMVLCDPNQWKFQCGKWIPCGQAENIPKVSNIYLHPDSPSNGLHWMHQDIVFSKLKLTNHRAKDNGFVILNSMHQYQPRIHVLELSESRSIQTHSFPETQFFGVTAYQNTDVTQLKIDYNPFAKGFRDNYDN
Procedure, shortened: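 Using the Universal PBM Analysis Suite, every ungapped 8-mer received an enrichment E-score averaged over duplicate arrays. Probe intensities came from double-stranded Universal Agilent oligonucleotide arrays incubated with 200 nM GST-fused Tbr T-box DNA-binding domain in PBS (pH 7.5). That protein was expressed in BL21 E. coli at 20 °C and purified by glutathione affinity chromatography.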

| Sequence | PBM E-score of 8-mer |
| --- | --- |
| ATACGGGG | -0.183 ± 0.0059 |
| CTTTCGAC | -0.0638 ± 0.037 |
| AAACTGGC | 0.153 ± 0.041 |
| ATCAGAAC | -0.294 ± 0.0065 |
| AGGGGGTA | -0.0444 ± 0.0045 |
| AGCTGGCA | 0.0839 ± 0.018 |
| CCTTGCGA | 0.183 ± 0.056 |
| ATTATACC | 0.0935 ± 0.021 |
| ATATTGCA | 0.0552 ± 0.017 |
| TAGCCAAA | -0.254 ± 0.021 |
| TGACCCAA | -0.129 ± 0.0059 |
| CTCTAGTC | -0.18 ± 0.059 |
| GCCTTCAA | -0.21549 ± 6.4e-05 |
| ATATCGCC | 0.12 ± 0.016 |
| AGTGCATG | -0.376 ± 0.015 |
| AACACACT | 0.211 ± 0.022 |
| CCTAGCGC | 0.142 ± 0.0078 |
| CAACCGTC | 0.0998 ± 0.056 |
| ACTTTCAC | 0.303 ± 0.019 |
| ACAAAGCT | -0.181 ± 0.03 |
| AATAGTAG | -0.128 ± 0.04 |
| AAAGTACG | -0.142 ± 0.097 |
| GTCATACA | 0.0278 ± 0.069 |
| GTTTGATA | -0.189 ± 0.062 |
| CGCAATTA | -0.0615 ± 0.068 |

| Sequence | PBM E-score of 8-mer |
| --- | --- |
| AACACTTA | 0.386 ± 0.031 |
| CATGGATA | -0.26 ± 0.017 |
| GCGAAAAC | 0.222 ± 0.05 |
| AATAACGT | -0.0159 ± 0.055 |
| CGTTAACA | 0.4129 ± 0.0026 |
| CGGGAGTC | -0.119 ± 0.032 |
| ATAACAGG | 0.121 ± 0.069 |
| AAGATGAG | -0.2214 ± 0.0016 |
| GAGCTAGC | -0.0427 ± 0.028 |
| CTCGCTAC | 0.0733 ± 0.0086 |
| GATAGTGA | 0.228 ± 0.011 |
| CCAAGGGG | -0.174 ± 0.035 |
| GAGCCATA | -0.151 ± 0.031 |
| AAACCATA | -0.0963 ± 0.013 |
| AAGAGCAC | -0.148 ± 0.032 |
| CCACGCGA | 0.172 ± 0.028 |
| CGTGTCGC | 0.254 ± 0.045 |
| ACAGTCAG | -0.036 ± 0.11 |
| ACAATTAA | 0.0501 ± 0.084 |
| CACCAACC | 0.187 ± 0.089 |
| CACACTGG | 0.151 ± 0.0022 |
| AGAAGCGA | 0.0503 ± 0.052 |
| CAATCAGA | -0.0765 ± 0.023 |
| ATGTGAAG | 0.204 ± 0.039 |
| TGTAGTAA | -0.202 ± 0.058 |

| Sequence | PBM E-score of 8-mer |
| --- | --- |
| AATTGAAA | -0.26 ± 0.011 |
| CATCATTC | 0.0175 ± 0.013 |
| GATAATCA | 0.0739 ± 0.095 |
| CACTGAGG | 0.0333 ± 0.099 |
| CCAGAATC | -0.147 ± 0.014 |
| GCTCTAAC | 0.0177 ± 0.017 |
| ATTCTGAC | -0.00299 ± 0.033 |
| CAGAAGTA | -0.263 ± 0.031 |
| CTCGGCTC | -0.00219 ± 0.046 |
| CATGGGGC | -0.233 ± 0.012 |
| GCAGCCAA | 0.0554 ± 0.022 |
| ATGAGTGA | 0.117 ± 0.027 |
| TCAACCCA | -0.174 ± 0.026 |
| AGGTAAGC | -0.261 ± 0.032 |
| CCAGCCGG | -0.00031 ± 0.015 |
| TCAGTGGA | -0.21 ± 0.0026 |
| ACAAACGA | 0.0375 ± 0.075 |
| AGTGATAG | 0.0834 ± 0.011 |
| TGCACGAA | -0.0165 ± 0.0071 |
| TCAAAAAA | -0.118 ± 0.026 |
| ACTGTTAT | 0.152 ± 0.032 |
| AAGTAACT | 0.0732 ± 0.026 |
| ATCTGCAT | -0.0843 ± 0.013 |
| CGAGTTGC | 0.122 ± 0.064 |
| ATCGACCG | -0.0685 ± 0.05 |

| Sequence | PBM E-score of 8-mer |
| --- | --- |
| GCCTCACA | 0.292 ± 0.0099 |
| CGAAATCA | 0.108 ± 0.059 |
| CGAGAAGA | 0.105 ± 0.042 |
| ATCGCGAA | 0.367 ± 0.032 |
| AAGGCGAT | 0.0831 ± 0.031 |
| CTGGGCGA | -0.00319 ± 0.011 |
| GCCTTGAC | 0.0485 ± 0.061 |
| AAAAAGGT | 0.0679 ± 0.11 |
| AAGTAACA | 0.207 ± 0.017 |
| CCGCTGAA | -0.222 ± 0.046 |
| CCTGCTCA | -0.223 ± 0.064 |
| ACTACGAG | 0.0752 ± 0.021 |
| AAGGTCTA | -0.294 ± 0.019 |
| AATCGCAT | 0.113 ± 0.0034 |
| ATTGAAGC | -0.0568 ± 0.045 |
| CCAACACA | 0.299 ± 0.017 |
| TATTTGAA | -0.214 ± 0.013 |
| ACTCATAC | 0.154 ± 0.053 |
| CTTAGACA | 0.0657 ± 0.077 |
| CTAGTAGC | -0.138 ± 0.031 |
| CCAGCGGC | 0.143 ± 0.033 |
| GCCCAGAA | -0.157 ± 0.0081 |
| CCTTAGCG | 0.185 ± 0.0076 |
| GCGCGCAC | 0.243 ± 0.074 |
| CGGTGACG | 0.233 ± 0.02 |

| Sequence | PBM E-score of 8-mer |
| --- | --- |
| CTCATCTC | 0.0131 ± 0.028 |
| ATAACTAT | 0.0245 ± 0.069 |
| GGCATGAC | 0.093 ± 0.12 |
| TACTAATA | -0.068 ± 0.086 |
| CACTTTTA | 0.278 ± 0.033 |
| AATCCGGA | -0.0833 ± 0.003 |
| AATGCGTG | 0.253 ± 0.028 |
| CGCCTCAA | 0.0699 ± 0.016 |
| CGTGTGTA | 0.096 ± 0.044 |
| AACGCGAA | 0.165 ± 0.044 |
| GTCGAGTA | -0.00253 ± 0.043 |
| GTTAGACA | -0.0877 ± 0.027 |
| ACGCCGCC | 0.0447 ± 0.023 |
| AGTGAGTA | 0.0289 ± 0.017 |
| AACCTCAA | -0.158 ± 0.018 |
| CATATGCG | 0.113 ± 0.024 |
| GGCTCTTA | -0.258 ± 0.03 |
| GTCCGGTA | -0.322 ± 0.0059 |
| ATTTACCG | -0.131 ± 0.054 |
| CGTATTTC | -0.182 ± 0.051 |
| ATGGATCC | -0.114 ± 0.064 |
| GATTCGAC | 0.0011 ± 0.011 |
| ATGGGGTA | -0.255 ± 0.076 |
| TCGGAAGA | -0.113 ± 0.029 |
| GTACCAAA | -0.231 ± 0.077 |

| Sequence | PBM E-score of 8-mer |
| --- | --- |
| GGGTTGTA | 2.5e-05 ± 0.05 |
| CGAGGACG | 0.00433 ± 0.041 |
| TGCGCGAA | 0.349 ± 0.036 |
| TCCATCGA | -0.0839 ± 0.076 |
| GGTAGAGA | -0.0828 ± 0.023 |
| AAATCGCG | 0.35 ± 0.018 |
| CAATACCA | 0.0567 ± 0.032 |
| TCTACTAA | 0.0508 ± 0.017 |
| ACGGAGCA | -0.0953 ± 0.0042 |
| ACTTTACT | -0.114 ± 0.017 |
| CAACTGGC | 0.195 ± 0.0086 |
| CCTCCACC | 0.0261 ± 0.016 |
| GAGATCGA | 0.0777 ± 0.032 |
| GCTGACCC | -0.0189 ± 0.062 |
| ACGATCAA | 0.00066 ± 0.0065 |
| GCGGCGAA | -0.0339 ± 0.054 |
| TAGTAGAA | -0.162 ± 0.045 |
| ATTGTAGA | -0.0244 ± 0.073 |
| GGGCTTAA | -0.202 ± 0.041 |
| AGTTATTC | -0.174 ± 0.03 |
| ATACAGTG | -0.0602 ± 0.086 |
| ACTTGGTA | 0.107 ± 0.039 |
| CTGGGGAC | 0.0912 ± 0.011 |
| GGGGTACC | -0.1738 ± 0.00025 |
| AGTGGTTA | -0.0707 ± 0.0042 |

| Sequence | PBM E-score of 8-mer |
| --- | --- |
| AGGGTAGG | -0.0233 ± 0.0073 |
| CCATACGC | -0.0539 ± 0.026 |
| AAGCCTTA | -0.28 ± 0.018 |
| GTCGTGCA | -0.0681 ± 0.058 |
| AAAGACTG | -0.176 ± 0.054 |
| CGGGTCAG | -0.0709 ± 0.016 |
| CGCGAAAG | 0.387 ± 0.015 |
| CTTACTAA | -0.19 ± 0.0069 |
| GATGAGAC | -0.0778 ± 0.034 |
| CTGCCTTC | -0.126 ± 0.0091 |
| GCTCACCC | 0.0214 ± 0.062 |
| AAGCCCAT | -0.202 ± 0.0073 |
| AACATCAT | -0.268 ± 0.054 |
| AAGGCCAA | -0.268 ± 0.038 |
| CCTATTGA | -0.21 ± 0.019 |
| AGACCTAT | -0.142 ± 0.047 |
| AGGCGTCC | 0.0702 ± 0.0083 |
| GGCGGAAC | -0.171 ± 0.037 |
| CATCCAGC | 0.0778 ± 0.0077 |
| CCATGGCC | -0.28 ± 0.015 |
| GAGCTAGA | 0.0345 ± 0.014 |
| AACAAAAG | 0.0359 ± 0.1 |
